# Reference: the antibiotic and cytotoxicity screens of Wong et al. (2023)
# The other results are listed elsewhere or left out.
# Legend:
# HSkMC = human skeletal muscle cells; test: cytotoxicity call (relative viability < 0.9); conditions: 10 µM
# S. aureus RN4220 = test: growth inhibition call (relative growth <= 0.2); conditions: 50 µM
SMILES,cytotoxicity call (HSkMC),growth inhibition call (S. aureus RN4220)
CC(C)(C)[C@H]1CCc2c(sc3nc(-c4ccccc4)cn23)C1,inactive,inactive
CN1C(=O)c2cc(NC(=O)Cc3cccs3)ccc2OC[C@@H]2O[C@@H](CC(=O)NCCCN3CCOCC3)CC[C@H]21,inactive,inactive
COCC(=O)N(C)C[C@@H]1Oc2cc(-c3ccc(C#N)cc3)ccc2S(=O)(=O)N([C@H](C)CO)C[C@H]1C,inactive,inactive
N=C(NO)NCC[C@H](N)C(=O)O,inactive,inactive
O=C(C[C@@H]1C=C[C@H](NS(=O)(=O)c2ccccc2)[C@H](CO)O1)NCc1ccncn1,inactive,inactive
CC(C)NC(=O)Nc1ccc2c(c1)C(=O)N([C@@H](C)CO)C[C@H](C)[C@@H](CN(C)C(=O)Nc1ccccc1)OCCCC[C@@H](C)O2,inactive,inactive
COc1ccc(CN(C)C[C@H]2OCCCC[C@@H](C)Oc3ccc(NS(=O)(=O)c4ccc(Cl)cc4)cc3C(=O)N([C@H](C)CO)C[C@@H]2C)cc1,inactive,inactive
COc1ccc(NC(=O)N2C[C@H](O)COC[C@@H]3O[C@@H](CC(=O)NCc4ccccc4OC)CC[C@H]32)cc1,inactive,inactive
C[C@@H]1CN([C@@H](C)CO)C(=O)c2cc(NC(=O)CCCCCC(=O)Nc3ccccc3N)ccc2O[C@@H]1CN(C)C(=O)Nc1ccc(C(F)(F)F)cc1,inactive,inactive
COc1ccc(S(=O)(=O)Nc2ccc3c(c2)C(=O)N([C@@H](C)CO)C[C@H](C)[C@H](CN(C)Cc2ccc4c(c2)OCO4)OCCCC[C@@H](C)O3)cc1,inactive,inactive
COc1ccccc1[C@@H](NC(=O)C1CCN(Cc2ccc(Oc3ccccc3)cc2)CC1)c1ccccn1,inactive,inactive
Nc1nc(Nc2ccccc2)nc2c1ncn2[C@@H]1O[C@H](CO)[C@@H](O)[C@H]1O,inactive,inactive
C[C@@H]1CCCCO[C@@H](CN(C)C(=O)Nc2ccc(F)cc2)[C@H](C)CN([C@H](C)CO)C(=O)c2cc(NC(=O)NC3CCCCC3)ccc2O1,inactive,inactive
CCOC(=O)C1=C(C)NC(c2ccccc2)=C(C(=O)OCc2ccc([N+](=O)[O-])cc2)[C@@H]1C#Cc1ccccc1,inactive,inactive
Cc1ccccc1-c1ccc2c(c1)O[C@@H](CN(C)C(=O)Nc1ccc(C(F)(F)F)cc1)[C@@H](C)CN([C@@H](C)CO)S2(=O)=O,active,inactive
C[C@@H]1CCCCO[C@H](CN(C)C(=O)Nc2ccccc2)[C@H](C)CN([C@@H](C)CO)C(=O)c2cc(NS(=O)(=O)c3cccs3)ccc2O1,inactive,inactive

SMILES,cytotoxicity call (HSkMC),growth inhibition call (S. aureus RN4220)
C[C@@H]1CN([C@@H](C)CO)C(=O)c2cccc(NC(=O)c3ccc(-c4nccs4)cc3)c2O[C@@H]1CN(C)S(=O)(=O)c1ccc(Cl)cc1,inactive,inactive
COc1ccc(CN(C)C[C@@H]2OCCCC[C@@H](C)Oc3ccc(NS(=O)(=O)c4ccc(F)cc4)cc3C(=O)N([C@@H](C)CO)C[C@H]2C)cc1,inactive,inactive
Cc1noc(C)c1S(=O)(=O)Nc1ccc2c(c1)C(=O)N([C@H](C)CO)C[C@@H](C)[C@H](CN(C)Cc1ccc(-c3ccccc3)cc1)O2,inactive,inactive
CN(C)CC#Cc1ccc([C@H]2[C@@H](CO)N3CCCCN(C(=O)CN(C)C)C[C@H]23)cc1,inactive,inactive
CCOC(=O)Cn1cnc2ccccc2c1=O,inactive,inactive
CO[C@H]1CN(C)C(=O)c2ccc(NC(=O)Nc3ccccc3F)cc2OC[C@H](C)N(Cc2ccccc2C(=O)O)C[C@@H]1C,inactive,inactive
Cn1sc(=O)n(Cc2ccccc2)c1=O,inactive,active
C[C@@H]1CN([C@@H](C)CO)S(=O)(=O)c2ccc(C#CCC3CCCC3)cc2O[C@H]1CN(C)C(=O)c1cnccn1,inactive,inactive
C[C@@H]1CN([C@@H](C)CO)C(=O)c2cccc(NC(=O)c3ccc(-c4nccs4)cc3)c2O[C@H]1CN(C)C(=O)Nc1ccccc1,inactive,inactive
C[C@H](CO)N1C[C@H](C)[C@H](CN(C)CC2CCCCC2)Oc2c(NC(=O)c3cnccn3)cccc2C1=O,inactive,inactive
CC(=O)OCCn1c(=O)[nH]c(=O)c2nsnc21,inactive,inactive
COc1ccc(S(=O)(=O)N(C)C[C@H]2OCCCC[C@@H](C)Oc3ccc(NC(=O)c4ccccc4)cc3C(=O)N([C@@H](C)CO)C[C@H]2C)cc1,inactive,inactive
CO[C@H]1O[C@H](CO)[C@@H](OC(=O)Nc2cccc(F)c2)[C@@H]2OC(=O)[C@H](Cc3cccc(Br)c3)C/C=C/C[C@@H](Cc3cccc(Br)c3)C(=O)O[C@@H]12,inactive,inactive
Cc1ccc(S(=O)(=O)N(C)C[C@@H]2Oc3ccc(NC(=O)NC(C)C)cc3CC(=O)N([C@@H](C)CO)C[C@H]2C)cc1,inactive,inactive
C[C@@H]1CN([C@@H](C)CO)C(=O)c2cc(NC(=O)Nc3ccccc3)ccc2O[C@@H](C)CCCCO[C@@H]1CN(C)Cc1ccccc1,inactive,inactive
